90 compounds from paper PMC4336329 (PLoS ONE, 2015) can be followed below.

In all, about 310,000 compounds went through this assay and about 2,200 (0.71%) showed an effect of 50% or more. Effects have a minus sign here. The list shows a part of the results.

Sequence of human ether-à-go-go-related gene (hERG) potassium channel (Q12809 whole entry, looked up): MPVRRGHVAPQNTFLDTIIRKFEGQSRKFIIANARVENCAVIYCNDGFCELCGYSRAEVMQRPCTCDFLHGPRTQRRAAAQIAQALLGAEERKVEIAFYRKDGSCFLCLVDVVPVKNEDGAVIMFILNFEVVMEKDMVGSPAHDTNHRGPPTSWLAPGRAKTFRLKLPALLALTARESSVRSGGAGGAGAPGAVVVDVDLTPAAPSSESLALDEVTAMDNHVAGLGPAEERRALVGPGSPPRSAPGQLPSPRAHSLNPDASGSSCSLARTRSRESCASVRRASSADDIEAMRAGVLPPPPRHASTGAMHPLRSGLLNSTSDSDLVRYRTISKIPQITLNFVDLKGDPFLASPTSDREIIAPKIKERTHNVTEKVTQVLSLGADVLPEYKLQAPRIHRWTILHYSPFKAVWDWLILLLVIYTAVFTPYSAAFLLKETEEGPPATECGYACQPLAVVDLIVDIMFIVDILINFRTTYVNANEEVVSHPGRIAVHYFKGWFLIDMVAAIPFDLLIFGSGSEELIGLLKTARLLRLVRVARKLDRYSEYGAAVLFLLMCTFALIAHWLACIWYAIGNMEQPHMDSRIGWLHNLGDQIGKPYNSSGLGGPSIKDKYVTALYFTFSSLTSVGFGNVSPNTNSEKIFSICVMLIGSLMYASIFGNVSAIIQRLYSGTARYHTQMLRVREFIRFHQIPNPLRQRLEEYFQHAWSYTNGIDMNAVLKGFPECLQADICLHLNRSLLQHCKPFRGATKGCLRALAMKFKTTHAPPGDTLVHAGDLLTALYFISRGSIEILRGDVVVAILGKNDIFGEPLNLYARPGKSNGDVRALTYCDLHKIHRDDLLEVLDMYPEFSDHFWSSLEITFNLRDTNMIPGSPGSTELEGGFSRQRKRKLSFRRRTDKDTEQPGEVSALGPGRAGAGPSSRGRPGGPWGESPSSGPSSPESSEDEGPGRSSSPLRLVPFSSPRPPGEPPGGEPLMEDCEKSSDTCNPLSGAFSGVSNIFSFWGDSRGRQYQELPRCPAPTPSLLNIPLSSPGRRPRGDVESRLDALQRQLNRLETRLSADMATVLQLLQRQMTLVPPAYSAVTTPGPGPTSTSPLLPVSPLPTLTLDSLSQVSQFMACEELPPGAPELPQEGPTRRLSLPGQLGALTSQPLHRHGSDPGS

This experiment concerns the target human ether-à-go-go-related gene (hERG) potassium channel (human, UniProt Q12809). Description: primary screen, population patch clamp on CHO cells stably expressing hERG.
Turning to `COc1ccc(Cl)cc1NC(=O)CCS(=O)(=O)c1cc2c(cc1C)NC(=O)CO2`, the “hERG current change (%, negative = inhibition) at 1uM” value is listed as 1.74%. Under `CNC(=O)C(=O)Nc1ccc(C)cc1C` stands 5.63%. Under `COc1ccc(-c2csc3nc(C(C)C)oc(=O)c23)cc1OC` stands 7.59%; under `Cc1cc(C)c[n+](-c2[nH]c(=O)sc2/C=N/N=C(\N)[S-])c1`, 17.5%; under `COc1cccc(OC)c1C(=O)Nc1ccc(CN2CCCCC2)cc1`, 10.2%.

`CCO[C@H]1OC(C(=O)O)=C[C@@H](c2csc3ccccc23)[C@@H]1CCCO`: the “hERG current change (%, negative = inhibition) at 1uM” value was found to be 18.6%. Regarding `CC1(C)CC(=O)C(C(=O)c2ccccc2)C(=O)C1Cl` (stereo not drawn), the “hERG current change (%, negative = inhibition) at 1uM” value is on record as 4.38%. As to `O=C(NC(=O)c1ccccc1O)c1ccc2c(c1)CCO2`, the “hERG current change (%, negative = inhibition) at 1uM” value worked out at 12.4%.

Take `O=C(NCCO)Nc1ccc2nc(-c3ccco3)c(-c3ccco3)nc2c1`: the “hERG current change (%, negative = inhibition) at 1uM” value amounted to 4.56%. Under `Cc1ccc(C2c3c(oc4ccc(Cl)cc4c3=O)C(=O)N2CCCN2CCOCC2)o1` (stereo not drawn) stands 3.82%; under `Cc1cc2c3nonc3ccc2n1-c1ccccc1`, 8.08%. Under `Cc1cc2cc(CNC(=O)Cc3ccc([N+](=O)[O-])cc3)ccc2n1C` stands 5.3%. For `Cc1nc(-n2[nH]c3c(c2=O)CCCC3)[nH]c(=O)c1Cc1ccccc1`, the “hERG current change (%, negative = inhibition) at 1uM” value came to 11.7%.

Take `Cc1cc(C)cc(NC(=O)c2ccc3nc[nH]c3c2)c1`: the “hERG current change (%, negative = inhibition) at 1uM” value is 14.2%. Next, `COc1cc(NC(=O)CSc2nc3c(c(=O)n(C)c(=O)n3C)n2C)cc(OC)c1`: 3.01%; `O=c1oc2cc(Br)ccc2n1CSC1=NCCS1`: 10.3%; `Cc1ccsc1C(=O)C1CCCN(Cc2cccc(-n3cccn3)c2)C1` (stereo not drawn): -10.8%.

Take `Cc1ccc(S(=O)(=O)N(C)CC(=O)N2CCCCCC2)cc1`: the “hERG current change (%, negative = inhibition) at 1uM” value was found to be 16.8%. Under `COc1ccc(C(=O)Nc2nnc(S(=O)(=O)N3CCOCC3)s2)cc1` stands -10.9%. Take `CCC1(C)N=C(N)Nc2nc3cc(C)c(C)cc3n21` (stereo not drawn): the “hERG current change (%, negative = inhibition) at 1uM” value turned out to be 6.79%. Under `CCOc1ccccc1-n1c(SCC(=O)N(CC)CC)nnc1-c1ccccn1` stands 6.17%; under `CCOc1cc(OCC)cc(C(=O)NC(=S)Nc2cccc(C(F)(F)F)c2)c1`, 10.7%. Next, `O=C(c1ccccc1F)N1CCN(S(=O)(=O)c2ccc(S(=O)(=O)N3CCCCC3)cc2)CC1`: 8.67%; `Nc1nc(CSC(=S)N2CCN(c3ccccc3)CC2)nc(Nc2ccc(F)cc2)n1`: -2.02%; `CCn1c(SCC(=O)NC2=NCCS2)nnc1C(C)NC(=O)c1ccc(Cl)cc1` (stereo not drawn): 15%. Next, `O=C(Cc1ccsc1)Nc1ccc(S(=O)(=O)C(F)F)cc1`: 11.7%; `COc1ccc(/C=N/NC(=O)c2c(C)nc3ccc(Br)cn23)cc1OC`: 4.44%. On to `CSc1ncccc1C(=O)N1CCCC(CCC(=O)NCc2ccccc2F)C1` (stereo not drawn), for which the “hERG current change (%, negative = inhibition) at 1uM” value came out at 4.53%. Under `Cc1cccc2c1NC1(CCCC1)CC2C.Cl` (stereo not drawn) stands 15.4%; under `Cl.O=C(CSc1ncc(-c2ccc(F)cc2)[nH]1)N1CCCCC1`, 0.257%; under `Cc1ccc(OCCCSc2ncccn2)cc1C`, 6.21%. Under `CCOc1ccccc1NC(=O)Cn1nnc(C(=O)NCc2ccc3c(c2)OCO3)c1N` stands 6.91%. Under `CCC(OCC(O)CN1CCCCC1)c1ccccc1.Cl` (stereo not drawn) stands 21.8%; under `CC(C)Sc1nc2sc(-c3ccccc3)cc2c(=O)n1N`, 10.1%; under `Cc1cccc(C)c1NC(=O)N1CCN(C2CCCCC2)CC1`, 29.2%. Consider `COc1ccc(C(C(=O)NC(C)(C)C)N(C(=O)CNC(=O)c2cccs2)c2cccnc2)cc1OC` (stereo not drawn), for which the “hERG current change (%, negative = inhibition) at 1uM” value was 13%. Next, `CN(C)c1ccc(C2OC(=O)C3(CCCC3)C(=O)C2(C)C)cc1` (stereo not drawn): -1.66%; `CO/N=C/NC(=O)NOCc1c(Cl)cccc1Cl`: 12.6%. For the compound `COC(=O)c1c2[n+](cc3cc(OC)c(OC)cc13)CCc1cc(OC)c(OC)cc1-2.[O-][Cl+3]([O-])([O-])[O-]`, the “hERG current change (%, negative = inhibition) at 1uM” value amounted to 17.3%. For the compound `CCN(CC)CC.COc1ccc(-n2c(=S)[nH]c3c(sc(=S)n3-c3ccccc3)c2=O)c(OC)c1`, the “hERG current change (%, negative = inhibition) at 1uM” value stood at 8.81%.

Regarding `O=C(Nc1ccc2nc(-c3cccnc3)[nH]c2c1)c1ccccc1F`, the “hERG current change (%, negative = inhibition) at 1uM” value was determined as 13.7%.

Regarding `Cc1nnsc1-c1nnc(SCC(=O)c2ccccc2)n1C1CC1`, the “hERG current change (%, negative = inhibition) at 1uM” value was 11.6%.

Turning to `COc1cc(C(=O)NC(C(=O)Nc2cccc(C(C)=O)c2)C(C)C)cc(OC)c1OC` (stereo not drawn), the “hERG current change (%, negative = inhibition) at 1uM” value worked out at 7.48%.

Regarding `CCOc1ccc(NC(=S)NCc2ccco2)cc1`, the “hERG current change (%, negative = inhibition) at 1uM” value is on record as 8.51%. Under `Cc1ccc(C(=O)N/N=c2\sc3ccccc3n2C)cc1` stands 7.83%; under `CCOc1ccc(Nc2oc(-c3ccc(Cl)cc3)nc2C#N)cc1`, 12.9%. Next, `Cc1ccc(C(=O)Nc2cccc3cccnc23)cc1C`: 15.1%. Under `CCOC(=O)C1C(=O)C=C(Nc2ccccc2F)CC1c1ccccc1` (stereo not drawn) stands 10.3%; under `COc1ccc2[nH]c3nc(SCC(=O)NC4CC4)nnc3c2c1`, 4.99%. For `CC(Sc1ccccc1)C(=O)N/N=C/c1cccnc1` (stereo not drawn), the “hERG current change (%, negative = inhibition) at 1uM” value was found to be 10.7%.

As to `CCN(CC)C(=O)C1=C(C)NC(=S)NC1c1cn(-c2ccccc2)nc1-c1ccc(Cl)cc1` (stereo not drawn), the “hERG current change (%, negative = inhibition) at 1uM” value is -9.26%.

On to `Cc1c(Cl)cccc1NC(=S)NCCN1CCOCC1`, for which the “hERG current change (%, negative = inhibition) at 1uM” value worked out at 14.5%. Next, `CCc1ccc(NC(=O)COC(=O)c2cccs2)cc1`: 18.6%; `COC(=O)c1ccc(OCC(=O)NC2CCCCCC2)cc1`: 11.3%. Next, `C/C(=N\NC(=O)CO/N=C(\C)c1cccs1)c1ccc(N)cc1`: 10.8%. Under `COc1ccc(C2N3CC4(C)CN2CC(C)(C3)C4)cc1OC` (stereo not drawn) stands 10.8%; under `COc1ccc2ccccc2c1CNCCCN1CCOCC1.Cl`, 9.7%; under `C/C(=N\Nc1nc(C)cc(-c2ccccc2)n1)c1cccc(N)c1`, 18.3%. As to `C#CCOCCOCCOCCNc1nc(N2CCN(C(=O)[C@H]([C@@H](C)CC)n3cc([C@@H](N)CC(C)C)nn3)CC2)nc(N2CCN(C(=O)[C@H](CCCCN)n3cc([C@@H](N)CC(C)C)nn3)CC2)n1.Cl`, the “hERG current change (%, negative = inhibition) at 1uM” value was -5%. Next, `Cn1c2ccccc2c2cc([N+](=O)[O-])ccc21`: -4.74%; `CC(C)NC(=O)c1cc(-c2cccs2)nc2ccccc12`: 11.1%.

Turning to `COCCNC(=O)CN1CCC(NC(=O)c2ccco2)CC1`, the “hERG current change (%, negative = inhibition) at 1uM” value was determined as 7.49%.

`O=C(Cc1n[nH]c(=O)[nH]c1=O)N/N=C/c1c(O)ccc2ccccc12`: the “hERG current change (%, negative = inhibition) at 1uM” value is given as 17.8%. Next, `CC(C)CNC(=O)CCCc1c[nH]c2ccccc12.O=C(O)C(=O)O`: 13.6%; `C=CCn1c(N2CCOCC2)nc2c1c(=O)[nH]c(=O)n2C`: 8.73%; `O=S(=O)(c1ccc(F)c(Cl)c1)N1CCN(C/C=C/c2ccccc2)CC1`: 14.7%. Next, `CCOC(=O)CSc1nc(N)c(C#N)c(-c2ccc(OC)cc2)c1C#N`: 14.9%; `COCCNC(=O)CN(c1cc(Cl)ccc1OC)S(C)(=O)=O`: 2.02%. `COc1ccc(-c2cc(C(F)(F)F)nc(SCC(=O)Nc3cc(C)on3)n2)cc1`: the “hERG current change (%, negative = inhibition) at 1uM” value is 20%.

With `Cc1ccc2nc(-c3ccc(NC(=O)COCC(=O)O)cc3)sc2c1`, the “hERG current change (%, negative = inhibition) at 1uM” value is recorded as 11.9%. Under `COc1cc(/C=C/c2ccc3c(Br)cc(Br)c(O)c3n2)ccc1O` stands 4.06%.

Turning to `CCOc1ccc(-n2ccnc(SCC(=O)Nc3ccc(OC)cc3OC)c2=O)cc1`, the “hERG current change (%, negative = inhibition) at 1uM” value is on record as 17.1%.

Take `O=C(COc1cccc(Br)c1)Nc1ccc(N2CCOCC2)cc1N1CCOCC1`: the “hERG current change (%, negative = inhibition) at 1uM” value is -4.35%. Next, `Cc1ccc(S(=O)(=O)NCCn2nc(C)cc2C)cc1`: 13.6%; `COc1ccc(COc2cccc3ccc(C)nc23)cc1F`: 20%. Next, `COc1ccc(CCC(=O)N/N=C\c2cccs2)cc1`: 10.3%; `CCCN(c1ccc(OCC)cc1)S(=O)(=O)c1ccc2c(c1)NC(=O)CO2`: 13.5%. Under `CCOc1ccccc1C(=O)NCCC(=O)O` stands 17.2%; under `CCCCN1CC(C(=O)NCc2ccc(C)cc2)CC1=O` (stereo not drawn), -4.05%; under `CCN(CC)S(=O)(=O)c1ccc(C)c(NC(=S)NC2CCCCC2)c1`, 8.1%. On to `O=C(Cn1cnc([N+](=O)[O-])n1)c1ccc(O)c(O)c1`, for which the “hERG current change (%, negative = inhibition) at 1uM” value worked out at 21.5%. Under `Cc1ccc(OCCC(=O)OC(C)C(=O)Nc2ccc(Cl)cn2)cc1` (stereo not drawn) stands -14.7%; under `CC(=O)c1c(N2CCOCC2)nc2ccc(Cl)cc2c1-c1ccccc1`, 6.99%. Under `O=C(NCc1ccco1)C1CCCN1C(=O)Nc1ccccc1Cl` (stereo not drawn) stands 10.8%; under `CCOc1ccc(Cc2c(C)[nH]c3ccc(C(=O)O)cc3c2=S)cc1`, 13.2%. Consider `COc1ccc(NC(=O)Nc2ccc3c(c2)CCC3)c(OC)c1`, for which the “hERG current change (%, negative = inhibition) at 1uM” value turned out to be 6.46%. Regarding `CC(C)c1ccc(C(=O)CSc2n[nH]c(-c3ccncc3)n2)cc1`, the “hERG current change (%, negative = inhibition) at 1uM” value stood at 7.16%. On to `CC(SCc1ccccc1)C(=O)N/N=C/c1ccc2c(c1)OCO2` (stereo not drawn), for which the “hERG current change (%, negative = inhibition) at 1uM” value worked out at 9.74%. Under `CN(C)CCCN(C(=O)c1cccc(N2C(=O)CCC2=O)c1)c1nc2cc3c(cc2s1)OCO3.Cl` stands 6.19%; under `Cn1cccc1C(=O)c1ccc(Cl)cc1Cl`, 7.82%.
